{"source": "the antibiotic and cytotoxicity screens of Wong et al. (2023)", "note": "This is one part of the list.", "data": [{"test_system": "HepG2", "assay": "cytotoxicity call (relative viability < 0.9)", "settings": "10 µM", "values": [{"molecule": "C[C@@H]1CCCCO[C@H](CN(C)C(=O)Nc2ccc(C(F)(F)F)cc2)[C@H](C)CN([C@@H](C)CO)C(=O)c2cc(NC(=O)Nc3ccc(F)cc3)ccc2O1", "cytotoxicity call": "inactive"}, {"molecule": "COc1cc(NC(=O)Cn2cnc3c2c(=O)n(C)c(=O)n3C)cc(OC)c1OC", "cytotoxicity call": "inactive"}, {"molecule": "CCOC(=O)N[C@@H]1CC(=O)N(C2CC2)C1", "cytotoxicity call": "inactive"}, {"molecule": "COc1ccc(CN(C)C[C@@H]2Oc3c(NS(C)(=O)=O)cccc3C(=O)N([C@@H](C)CO)C[C@H]2C)cc1", "cytotoxicity call": "inactive"}, {"molecule": "CN(Cc1ccccc1)C[C@H]1C[C@@H](c2ccc(CO)cc2)O[C@H](c2ccc(NC(=O)CCCCCCC(=O)NO)cc2)O1", "cytotoxicity call": "inactive"}, {"molecule": "C[C@@H]1CCCCO[C@@H](CN(C)C(=O)Nc2ccc3c(c2)OCO3)[C@@H](C)CN([C@@H](C)CO)C(=O)c2cc(NS(=O)(=O)c3ccccc3)ccc2O1", "cytotoxicity call": "inactive"}, {"molecule": "C[C@H]1CN([C@@H](C)CO)C(=O)c2cccc(NC(=O)C3CC3)c2O[C@@H]1CN(C)S(=O)(=O)c1cn(C)cn1", "cytotoxicity call": "inactive"}, {"molecule": "C[C@H](CO)N1C[C@H](C)[C@H](CN(C)C(=O)c2ccccc2)OCCCC[C@H](C)Oc2ccc(NC(=O)Nc3ccc4c(c3)OCO4)cc2C1=O", "cytotoxicity call": "inactive"}, {"molecule": "C[C@H]1CN([C@@H](C)CO)S(=O)(=O)c2ccc(C3=CCCCC3)cc2O[C@H]1CN(C)Cc1cncnc1", "cytotoxicity call": "inactive"}]}]}
